# Measured values as given in the supplement of paper PMC9433436.
# ± gives the standard deviation of the averaged measurements. In all, about 4,100 sequences were measured (“relative kcat/Km (krel) vs genomic leader AAAGAU”: median about 1.7, highest 2% from about 6.5 on). Only a part is listed here, and it is no random draw.
# Molecular target: T1, E. coli RNase P holoenzyme (M1 P RNA + rnpA protein) (UniProt P0A7Y8)
# T1 sequence: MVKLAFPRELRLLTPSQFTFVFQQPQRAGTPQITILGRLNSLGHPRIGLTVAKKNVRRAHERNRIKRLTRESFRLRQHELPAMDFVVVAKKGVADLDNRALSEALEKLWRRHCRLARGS
# Assay: relative kcat/Km (krel) vs genomic leader AAAGAU (relative (reference leader = 1)); higher = faster RNase P cleavage
# Description: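 HTS-Kin: a pool of ptRNA-Met (21C construct) with all 4096 combinations of 5' leader nucleotides N(-6) to N(-1) was processed in vitro by E. coli RNase P (P RNA + rnpA/C5 protein) under multiple-turnover conditions at 37 C, pH 8, 17.5 mM MgCl2. Residual substrate was Illumina-sequenced at several fractions reacted, and relative kcat/Km (krel) was computed by internal competition kinetics, calibrated to the genomic leader (AAAGAU = 1). The listed hexamer is the varied N(-6)..N(-1) leader (DNA letters), and it sits between a fixed 5' stem-loop flank (GCAUGCACGAAAGUGCGUGCUAUGAA) and the mature tRNA-Met starting GGCUACGUAGCUCAGUUGG. Two technical replicates are averaged.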
# [1] = fraction of substrate reacted: ~9-10% (9.79% repeat 1, 9.1% repeat 2)
# [2] = fraction of substrate reacted: ~13-16% (15.68% repeat 1, 13.17% repeat 2)
# [3] = fraction of substrate reacted: ~26-29% (28.66% repeat 1, 26.4% repeat 2)
Sequence,relative kcat/Km [1],relative kcat/Km [2],relative kcat/Km [3]
GTAGTC,1.75 ± 0.7,1.42 ± 0.58,1.41 ± 0.024
AGTTAG,2.06 ± 1.1,2.34 ± 0.29,4.77 ± 1.3
CAATAT,3.27 ± 0.33,4.46 ± 0.96,6.37 ± 3
GGCGCC,2.72 ± 2.1,2.21 ± 0.42,3.06 ± 0.78
CAGTCT,1.97 ± 0.68,2.58 ± 1,3.68 ± 1.1
TGCGCA,2 ± 0.91,1.69 ± 0.53,2.46 ± 0.77
ACATCA,1.21 ± 0.009,1.81 ± 0.19,2.5 ± 1.6
AGAATG,,,1.37 ± 0.32
AGCCGA,2.28 ± 0.18,2.48 ± 0.71,4.79 ± 2.1
TGCCAG,1.09 ± 0.63,0.569 ± 0.3,2.44 ± 0.81
CTTACA,1.45 ± 0.65,1.72 ± 0.22,2.66 ± 0.61
GAGAAG,,0.734 ± 0.39,1.62 ± 0.15
CATAAG,2.17 ± 1.8,1.55 ± 0.2,2.63 ± 0.4
GCTTGA,,1.64 ± 0.093,2.72 ± 0.46
GTGCAA,1.89 ± 1.4,1.25 ± 0.53,1.32 ± 0.22
AGGTAC,1.06 ± 0.53,0.817 ± 0.12,1.42 ± 0.88
TTATTG,,,1.66 ± 0.42
TCTTCG,0.94 ± 0.5,0.723 ± 0.18,1.66 ± 0.16
CGGACC,0.889 ± 0.39,0.714 ± 0.41,0.577 ± 0.38
TAACTG,,,0.792 ± 0.16

Sequence,relative kcat/Km [1],relative kcat/Km [2],relative kcat/Km [3]
GTCGTT,1.88 ± 0.21,2.27 ± 0.34,2.84 ± 1.5
GTGTCC,1.51 ± 0.45,0.992 ± 0.16,1.45 ± 0.24
TTACCA,2.14 ± 1.2,1.87 ± 0.28,2.16 ± 1.2
GCTCCG,,,0.812 ± 0.77
AGCGGA,,0.402 ± 0.097,0.963 ± 0.59
AGGTTT,,,1.18 ± 0.77
TAGGCA,1.68 ± 0.35,1.12 ± 0.27,1.61 ± 0.94
TCAAAG,,1.13 ± 0.55,1.88 ± 0.077
CGCAGT,0.604 ± 0.024,1.58 ± 1.3,1.54 ± 1.1
CCCGCT,2.05 ± 0.54,1.73 ± 1.7,2.61 ± 0.18
AAAGGG,,,1.26 ± 0.72
GCGGGA,,,1.03 ± 0.89
ATCAAA,3.96 ± 1.9,5.34 ± 0.78,
GTTTTT,2.72 ± 0.87,3.31 ± 0.35,4.66 ± 1.7
CGATAC,3.25 ± 1.4,4.04 ± 1,5.79 ± 2.4
TGGATC,0.64 ± 0.58,1.09 ± 0.031,1.46 ± 1.2
TATCGT,,,2.28 ± 2
CGACTT,2.19 ± 0.62,1.6 ± 0.27,2.58 ± 0.66
TATAAT,3.05 ± 0.91,3.72 ± 0.38,5.41 ± 2.8
AAGGAT,0.301 ± 0.0072,,

Sequence,relative kcat/Km [1],relative kcat/Km [2],relative kcat/Km [3]
ACCTGT,,,1.14 ± 1.1
GCTGCG,,,0.863 ± 0.14
GCCCTG,,,0.981 ± 0.65
GAATCG,,,1.07 ± 0.024
TCGGTA,0.285 ± 0.19,,
GCTCGT,0.751 ± 0.11,,1.23 ± 1
TATTGG,0.568 ± 0.24,,1.46 ± 0.98
TACCTA,2.68 ± 0.57,2.96 ± 0.45,4.3 ± 2
ATAACG,,,0.883 ± 0.29
CCCCGA,3.63 ± 1.8,4.05 ± 0.29,4.96 ± 1.9
ATTCCC,1.87 ± 0.87,1.93 ± 0.23,2.08 ± 0.99
CAAGAA,2.22 ± 0.59,1.66 ± 0.49,2.38 ± 0.52
TACTCA,4.24 ± 2.1,4.66 ± 0.28,6.33 ± 3
TCGTTC,3.28 ± 0.52,3.48 ± 1.1,5.41 ± 2.3
GTAGCG,,,0.718 ± 0.3
CATTGT,,,1.59 ± 0.98
TCCAAG,2.34 ± 1.2,1.77 ± 1.2,4.8 ± 1.6
AAAGAC,1.83 ± 0.76,2.21 ± 0.32,2.74 ± 0.42
